Results from PubChem BioAssay AID1508624 (National Center for Advancing Translational Sciences (NCATS), 2021).
In all, about 48,000 compounds went through this assay and about 120 (0.25%) were called active. Not shown: some 4% with an inconclusive outcome. Calls follow the shape of the dose curve; as a rule, active = well fitted activation curve with a large enough effect; inconclusive = small, poorly fitted or top-dose-only effect, or another doubt; inactive = no such curve, though single readings can be large or run the other way. The list shows a part of the results.

Assay: Primary qHTS for Identification of Small Molecule Activators of Huntingtin-Antisense Promoter Activity; also: nearly all actives have a fitted effect of over 55% in size
Conditions: HEK293 HTT-AS promoter firefly luciferase reporter, 24 h; series mostly up to 57.5 µM; activity change, positive = activation: at the top concentration
In short: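 Firefly luciferase signal from promoter-reporter HEK293 cells was scaled between vehicle (0%) and zero RLU (-100%). Compounds were tested at final concentrations of up to 57.5 uM over 24 h at 37 degrees C. PTC124 at 50 uM final served as control inhibitor.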

SMILES	activity change, positive = activation
CCN(c1ncnc2c1cnn2-c1cccc(Cl)c1)C1CCCCC1	inactive: -59.5%
COCCn1c(C)cc(O)c(C(c2ccc(Cl)cc2)N2CCCCC2)c1=O (centres undefined)	inactive: 2.87%
Cc1cc(C)c(NC(=O)CN2C(=O)CCSc3ccc(S(=O)(=O)N4CCCC4)cc32)c(C)c1	inactive: -10.4%
COc1cccc(CNC(=O)CN2C(=O)CSc3ccc(S(=O)(=O)N4CCCC4)cc32)c1	inactive: -3.82%
COc1ccc(C2C(=O)N(C3CCCCC3)CC(=O)N2C2CCCCC2)cc1 (centres undefined)	inactive: -15.6%
Cc1ccc2oc(-c3cc(NC(=O)/C=C/c4ccco4)ccc3Cl)nc2c1	inactive: 9.29%
CC(=O)Nc1nonc1-c1nc2ccccc2n1Cc1ccccc1Br	inactive: -30.3%
COc1cc2c(cc1OC)C(COc1ccc3c(C)cc(=O)oc3c1)N(C(=O)CC(C)C)CC2 (centres undefined)	inactive: 3.51%
CCC1Nc2cc(Cl)c(S(N)(=O)=O)cc2S(=O)(=O)N1 (centres undefined)	inactive: -8.24%
Brc1ccc2nc(SCCOc3ccccc3)[nH]c2c1	inactive: 16.4%
Cc1ccc2c(c1)N(C(=O)Nc1cccc3c1CCCC3)CC(C)O2 (centres undefined)	inactive: -30.6%
Cc1ccccc1CN1CCCN(CC(=O)Nc2ccc3c(c2)OCCO3)S1(=O)=O	inactive: -8.4%
COc1ccc(NC(=O)CCc2c(C)nc3c(-c4ccc(F)cc4)c(C)nn3c2C)c(OC)c1	inactive: -4.91%
COC(=O)c1cc(NC(=O)c2ccc(-c3ccc(Cl)cc3Cl)o2)cc(C(=O)OC)c1	inactive: -13%
CCOC(=O)c1noc2nc(C)n(Cc3ccc([N+](=O)[O-])cc3)c(=O)c12	inactive: -4.92%
Cc1cccc(Cn2nnc3c(=O)[nH]c(C4CCN(C(=O)c5ccc(F)cc5)CC4)nc32)c1	inactive: -14.3%
CN1CCN(C(CNC(=O)c2ccccc2)c2ccc3c(c2)OCO3)CC1 (centres undefined)	inactive: -1.07%
O=C(NCc1cccc(Cl)c1)C1CCCN(c2ncnc3onc(-c4ccc(F)cc4)c23)C1 (centres undefined)	inactive: -25.3%
CCn1c(=O)cc(SCC(=O)N2CCN(c3ccccc3F)CC2)c2ccccc21	inactive: 7.36%
CCOc1ccc(NC(=O)c2c(NC(=O)c3cccs3)sc3c2CCC(C(C)(C)C)C3)cc1 (centres undefined)	inactive: -5.56%

SMILES	activity change, positive = activation
COc1ccccc1NC(=O)c1cc(S(=O)(=O)NCCC2=CCCCC2)ccc1F	inactive: -27.3%
CCOc1ccc(NC(=O)CN(C)S(=O)(=O)c2cnc[nH]2)cc1	inactive: 9.03%
COc1ccc(NC(=O)NC(C)c2c(-n3cccc3)sc3c2CCN(C)C3)c(OC)c1 (centres undefined)	inactive: -11.8%
Nc1c(C(=O)Nc2cccc(C(F)(F)F)c2)c2ccccn2c1C(=O)c1ccccc1	inactive: 8.28%
CC(C)(C)C(=O)Cn1c(=O)n(-c2ccc(Cl)c(Cl)c2)c(=O)c2c3c(sc21)CCCC3	inactive: -18%
Cc1cc(C)cc(N2CCn3c2nc2c3c(=O)n(CCCc3ccccc3)c(=O)n2C)c1	inactive: -0.999%
Cc1ccc(CNC(=O)CCCn2c(=O)c3ccccc3n(Cc3ccc(Cl)cc3)c2=O)cc1	inactive: -12.9%
CN(C(=O)CSc1nnc(-c2ccc([N+](=O)[O-])cc2)o1)c1ccccc1	inactive: -11.7%
Cc1ccc(CNC(=O)CCC(=O)N2CCSc3ccccc32)cc1	inactive: -7.97%
COc1ccc(CCNC(=O)Cn2cc(C(=O)c3ccc(F)cc3)c(=O)c3ccc(C)nc32)cc1OC	inactive: -19.1%
CCOc1ccc(-c2noc(CSc3nnc(Cc4ccccc4)n3-c3cccc(C)c3)n2)cc1	inactive: -53.9%
Cc1ccc(-c2nc3cc(C(C)C)ccc3o2)cc1NC(=O)c1cc([N+](=O)[O-])ccc1N1CCOCC1	inactive: -43.5%
COCCCNC(=O)C1CCCN(c2nn3cc(-c4ccc(C)cc4)nc3s2)C1 (centres undefined)	inactive: -30.6%
CNC(=O)C1CCN(c2nc3ccccc3nc2C(F)(F)F)CC1	inactive: -2.08%
CCc1ccc(NC(=O)N2CCN(C(=O)c3nsc4ccccc34)CC2)cc1	inactive: -33.6%
O=C(Nc1ccc(C(F)(F)F)cc1)N1CCC(N2CCCCC2)CC1	inactive: -11.9%
COc1cc(Cl)c(C)cc1NC(=O)c1cnc2c(-c3cccc(C)c3)c(C)nn2c1C	inactive: -9.79%
Cc1ccsc1CN1CCc2nc(N3CCN(c4ccccc4F)CC3)ncc2C1	inactive: -28.1%
CNC(=O)c1ccc(CSc2nc3ccncc3n2Cc2ccc(C)cc2)cc1	inactive: -14.3%
CCCN(C(=O)Cn1cc(S(=O)(=O)N2CCN(c3ccccc3F)CC2)c2ccccc2c1=O)c1cccc(C)c1	inactive: -11.8%

SMILES	activity change, positive = activation
COc1cccc(CNC(=O)Cn2c(C)c3cnn(-c4ccccc4)c(=O)c3c2C)c1	inactive: -18.4%
CCOc1ccc(OCC)c(Nc2nc3ccc(Cl)cc3n3cnnc23)c1	inactive: -3.14%
CCC(C)NC(=O)CCc1c(C)nc2cc(-c3ccc(OC)cc3OC)nn2c1C (centres undefined)	inactive: -2.88%
Cc1cccc(CCNC(=O)C2CCN(c3nc4ccccc4nc3C(F)(F)F)CC2)c1	inactive: 0.91%
CCc1cccc(NC(=O)c2ccc(CNS(=O)(=O)c3ccc4c(c3)C(C)(C)C(=O)N4C)cc2)c1	inactive: -48%
Cc1ccc(-n2ncc3c(NCC(C)C)ncnc32)c(C)c1	inactive: 17.2%
COc1ccccc1-c1cc2nc(C)c(CCC(=O)Nc3cc(C)ccc3C)c(C)n2n1	inactive: -43.5%
CCc1ccc(NC(=O)Cn2cnc3sc(C)c(S(=O)(=O)N4CCN(c5ccccc5OC)CC4)c3c2=O)cc1	inactive: 9.82%
Cc1ccc(C)c(NC(=O)Nc2cccc(-c3cn4cccnc4n3)c2)c1	inactive: -0.825%
Cc1oc(-c2ccccc2F)nc1CSc1nnc(C)n2c1cc1occc12	inactive: -4.66%
CC(C)(C)OC(=O)N1CCC(c2c(C(=O)N3CCOCC3)cnn2-c2cccc(F)c2)CC1	inactive: 0.567%
COC(=O)c1ccccc1-n1cc2c(c1-c1cccc(C)c1)c(=O)n(C)c(=O)n2C	inactive: -17.1%
CCOC(=O)c1cnc2ccc(Cl)cc2c1Nc1ccc(N2CCOCC2)cc1	inactive: -37.8%
O=C(CSc1nc2c(c(=O)[nH]1)CN(Cc1ccc3c(c1)OCO3)CC2)Nc1ccc(F)c(F)c1	inactive: -13.6%
Cc1cccc(-c2nc3ccccc3n3c(-c4ccccc4)c4c(=O)n(C)c(=O)n(C)c4c23)c1	inactive: -1.24% [at 11.5 µM, percent change from vehicle, -100% = no light]
O=C(Nc1ccc(F)c(Cl)c1)N1CCC(CN2CCc3ccccc3C2)CC1	inactive: -5.16%
CC(C)(C(=O)O)c1ccc(C(O)CCCN2CCC(C(O)(c3ccccc3)c3ccccc3)CC2)cc1 (centres undefined)	inactive: -3.63%
O=c1cc(N2CCOCC2)oc2c(-c3cccc4c3sc3ccccc34)cccc12	inactive: -15%
CC(C)Oc1ccc(CNC(=O)Cn2ncn3nc(-c4cccs4)cc3c2=O)cc1	inactive: -25.7%
